Consider eight molecules from the supplement of paper PMC12632987.

The chains are these.
B1: LC3A_45_1943 (protein)
chain: MTIYEAEIDILLKGTEADLEEAKAIIREVAEKHGVEVEIDEELNAALNAETKADGYQFLEVTLRSESEEKVSKAADEIERRLEEKFKGKVASIISFSKVE
B2: LC3A_3_1416 (protein)
chain: MEEAKKKALEALKKAGHSEETLKALNELVDLLEARGAEEEAKEVLELVLENKDISSELLLEVLNEAIELLTVKKLSPEEVIKELKEELRIARNEEEIIEL
B3: LC3A_free_8_2493 (protein)
chain: KSKELAKIASDELDKLEEKLEEKAKELGVSELDILEISLEIGSTIAEIYTLSDKDPKDILDEVKEGLKEVIKLAKEISEELAKFAKEKAKEVIEKVEKKI
B4: LC3A_free_0_2104 (protein)
chain: MTVVGEVLAISDEKLSEEKVKKLTEFLNELADKISKEYGAKTSVEVKEVDGRTIFTLTFSKEGMSVEEMLEIVDEVADKVEKKFKELGVNVTIYTSVYEE
B5: LC3A_147_483 (protein)
chain: MRIDIDALIKGEETVEEFIERLEEKKEELEEEGVEVELEIEVEEVEEGVYYLKVTVTIKAETKEKEKEAADKIIDTIEEFEEENKDKVLGVLISVEEIEE
B6: LC3A_127_205 (protein)
chain: EKKKLLEEAEKLAEKASEALDKIPEEGEKALEEAIKLLEELAKLLKKVPELEDALKDTEQAIKELKATKTLSPAEKEEAIEHISMIIDGVLIEIESELLK
B7: LC3A_3_1627 (protein)
chain: MEEEVEELLEELREAGHDEETLEAFRRVAELLMERGFEEALKVLIEEVRKLLHLPSEILLDFLESVLERLETEDLNEEETIEFIKEEARIARNEGEIIEL
B8: LC3A_3_1758 (protein)
chain: MEEFIEKAAKELKEAGASEELIELASKALRLLLERGLEETAKEFLETLLELVKKSKELAEELAKEVLELLETSELSPEELAKEIRELMSAALSEAEIIEL

The full ranking holds about 2,300 sequences; the median of “median log2 fold change of GCK-ALFA target abundance (FLAG IP / Myc IP barcode read proportion)” is about 0.095, and the lowest 2% start at about -0.47. Some of the results follow.

The target of this test is MAP1LC3A, Q9H492. The test is described as follows: median log2 fold change of GCK-ALFA target abundance (FLAG IP / Myc IP barcode read proportion) (log2 ratio); each designed protein is fused to an ALFA-tag nanobody in HEK293 cells to bring the named protein to FLAG-tagged glucokinase (GCK); Myc marks an untargeted standard; higher = target protein stabilised (more abundant). The note with it: target protein: 3xFLAG-MCP-GCK-ALFA reporter; HEK293 landing pad (RPLP). In outline: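 Binders fused to an ALFA nanobody were recombined as a library into HEK293 landing-pad cells, which were induced with 2 μg mL^−1 doxycycline and then transfected to express a FLAG-tagged target and a Myc-tagged standard. After 48 h, circular RNA barcodes recovered by anti-FLAG and anti-Myc immunoprecipitation of lysates were reverse transcribed, amplified and sequenced. Each binder's target abundance is the median log2 ratio of FLAG to Myc barcode read proportions, from barcodes present at ≥10^−7 in both replicates, binders carrying ≥3 barcodes per replicate, a 10^−6 pseudocount and pooled replicates.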
On to B1, for which the “median log2 fold change” value amounted to 0.00857.
Consider B2, for which the “median log2 fold change” value turned out to be 0.297.
As for B3, the “median log2 fold change” value amounted to 0.0574.
As to B4, the “median log2 fold change” value is -0.147.
B5: the “median log2 fold change” value was -0.904.
The figure for B6 is 0.33.
The figure for B7 is 0.0406; for B8 it is 0.206.
